According to the supplement of paper PMC7826260:
Some of the results follow. One pool of 16,384 single-stranded DNAs met each Rep nickase domain in vitro (1 h at 37 °C, 3 µM enzyme); the outer parts of the 90-letter strands are left off. Numbers give uncut DNA relative to the enzyme-free pool, as log2; the lower, the more was cut; hits are not called. Counts are relative to all reads, so uncut sequences can rise above 0 when many others are cut.

Tested on: T1, Rep nickase domain of tomato golden mosaic virus
T1 sequence (Rep 1-124, printed without the tag): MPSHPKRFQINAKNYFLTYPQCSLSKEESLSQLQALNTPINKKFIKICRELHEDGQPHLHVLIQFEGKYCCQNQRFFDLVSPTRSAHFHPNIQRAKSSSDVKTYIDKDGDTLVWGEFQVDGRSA
Test: uncleaved DNA left, log2 of reads against the no-enzyme library (log2 ratio); higher = less cleavage (more negative = more Rep cleavage of the k-mer); sequences stand for … in CTCGTCCG…ACCGGAGA
Method: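 A pool of 90-nt single-stranded DNAs with seven random bases just before the constant AC of the nick site (name = the seven bases) was cut by 3 µM recombinant His6-SUMO-tagged Rep nickase domain (300 nM DNA, 50 mM HEPES pH 8.0, 50 mM NaCl, 1 mM MnCl2, 1 h, 37 °C, three replicates). Uncut DNA was amplified and sequenced.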

Row | Sequence | uncleaved DNA left (log2)
1 | CCTAGTG | -0.035
2 | GACCACG | -0.0448
3 | TAGCAGA | 0.0133
4 | ATCGCCA | 0.0345
5 | CCAATCT | -0.0076
6 | CAAAGGA | 0.0277
7 | GCCGCTG | -0.0685
8 | AATCTCC | -0.0748
9 | CGAGCTA | -0.0354
10 | AGCATCC | 0.000449
11 | TCCTAAT | -0.0637
12 | TGACATA | 0.0514
13 | CAAAGTT | -1.72
14 | ACTCTCT | -0.0614
15 | GAGCAAC | -0.0161
16 | CAGGGGA | 0.00683
17 | TGTTGAC | -0.0844
18 | CCCGTTT | 0.241
19 | TTGTGAG | -0.163
20 | TTTAAGA | 0.00471

Row | Sequence | uncleaved DNA left (log2)
21 | GCCTCCA | -0.0124
22 | AATACCG | -0.000124
23 | TCATTGG | -0.0533
24 | TTGTCAA | 0.0273
25 | ATGGCAG | 0.197
26 | TGCTCGG | 0.0257
27 | GTGTATA | 0.156
28 | CGCATGA | 0.104
29 | TTGTCGC | -0.199
30 | GGGACGC | 0.0537
31 | ACGCAGC | -0.107
32 | GTACGAC | 0.134
33 | GAAACAC | 0.0493
34 | AGTACGG | 0.19
35 | ACCGGGA | 0.0376
36 | GCCTCTA | 0.0946
37 | TTCCGGA | 0.0779
38 | GAACTAT | 0.0592
39 | CTGTTCG | -0.124
40 | TCGACGA | -0.0905
